# Reference: PubChem BioAssay AID485294 (National Center for Advancing Translational Sciences (NCATS), 2010)
# Screen size: about 370,000 compounds; about 150 (0.041%) were called active. The inconclusive results got no clear call from the source; some entries with a clear call stand among them for comparison. Calls come from the whole dose curve; as a rule, active = well fitted inhibition curve with a large enough effect; inconclusive = small, poorly fitted or top-dose-only effect; inactive = flat fitted curve, though single readings scatter. Potencies of inconclusive entries are left out as doubtful fits.
# Target: Beta-lactamase (Escherichia coli (strain K12)) (UniProt P00811)
# Chain of UniProt P00811 (P00811 whole entry, looked up): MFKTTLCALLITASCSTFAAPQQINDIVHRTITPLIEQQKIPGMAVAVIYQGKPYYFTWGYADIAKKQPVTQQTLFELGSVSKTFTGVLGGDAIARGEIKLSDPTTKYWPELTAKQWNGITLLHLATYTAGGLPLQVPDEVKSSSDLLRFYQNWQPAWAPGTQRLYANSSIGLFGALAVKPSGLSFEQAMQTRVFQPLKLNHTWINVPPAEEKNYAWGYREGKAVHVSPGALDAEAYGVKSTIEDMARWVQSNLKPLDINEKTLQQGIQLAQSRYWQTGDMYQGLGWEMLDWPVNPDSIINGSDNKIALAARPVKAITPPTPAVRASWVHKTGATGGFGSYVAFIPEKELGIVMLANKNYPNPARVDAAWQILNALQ
# Experiment: qHTS Inhibitors of AmpC Beta-Lactamase (assay with detergent); note: nearly all actives have a fitted effect of over 25% in size
# Settings: AmpC hydrolysis of nitrocefin, absorbance 480 nm, 0.01% Triton; series mostly up to 114 µM
# Outline: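 AmpC (5.3 nM in the dispensed reagent) in 20 mM phosphate pH 7.0 with 0.01% (detergent screen) or 0.0001% Triton X-100 was preincubated with compounds for 15 min at room temperature. Nitrocefin was then added from an 800 uM solution, and hydrolysis was followed at 480 nm.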
# Potency is the fitted concentration of half-maximal effect; tags give direction and shape of the fitted curve.
row,SMILES,Potency
1,COCc1cc(C)nc(OCC(=O)N/N=C/c2ccco2)c1C#N,"inconclusive [inhibitor, partial curve, poor fit]"
2,Cc1nn(CCCC(=O)NCCc2ccccc2)c(=O)c2nccn12,"inconclusive [inhibitor, partial curve, poor fit]"
3,COCCn1c(CN2CCN(c3cccc(Cl)c3)CC2)nc2c1c(=O)n(C)c(=O)n2C,"inconclusive [inhibitor, full curve, poor fit]"
4,C=CCn1nnnc1SCC(=O)Nc1ccc(OC)cc1,"inconclusive [inhibitor, partial curve, poor fit]"
5,COc1ccc(-c2nc(CS(=O)(=O)CC(=O)NCc3cccc(OC)c3OC)c(C)o2)cc1,"inconclusive [inhibitor, partial curve, poor fit]"
6,C/C=C/Cn1c(Br)nc2c1c(=O)[nH]c(=O)n2C,"inconclusive [inhibitor, partial curve]"
7,Cn1c(NCC(O)c2ccccc2)nc2c1c(=O)n(Cc1ccc(Cl)cc1)c(=O)n2C (stereo unspecified),"inconclusive [inhibitor, full curve, poor fit]"
8,COc1ccc(CNC(=O)Cn2c(=O)nc(-c3ccccc3)c3cc(Cl)ccc32)cc1OC,inactive
9,Cc1ccc(Sc2ncnc3onc(C)c23)cc1,inactive
10,CC1CCCN(C(=O)C(=O)Nc2ccc3nc4n(c(=O)c3c2)CCCCC4)C1 (stereo unspecified),"inconclusive [inhibitor, partial curve]"
11,Cc1nn(C)c(C)c1NS(=O)(=O)c1cccc(Br)c1,"inconclusive [inhibitor, partial curve, poor fit]"
12,COc1ccc(C(=O)Nc2ccc3c(c2)C(=O)c2ccccc2C3=O)cc1OC,"inconclusive [inhibitor, full curve]"
13,CN(CC(O)COC(c1ccccc1)c1ccccc1)C1CCCCC1 (stereo unspecified),"inconclusive [inhibitor, full curve]"
14,O=C(Nc1cccc(S(=O)(=O)N2CCCCC2)c1)C1CC1,inactive
15,COc1ccccc1CCNC(=O)c1cccc(S(=O)(=O)N2CCc3ccccc3C2)c1,"inconclusive [inhibitor, partial curve, poor fit]"
16,Cc1cc(C)nc(N(C#N)CCOc2ccc(Cl)cc2)n1,"inconclusive [inhibitor, full curve, poor fit]"
17,Cc1ccc(C(=O)Nc2nn(C)c3cccc(F)c23)cc1,inactive
18,O=C(CSc1ncnc2c1cnn2CCO)Nc1cccc(C(F)(F)F)c1,"inconclusive [inhibitor, full curve]"
19,CCOC(=O)/C=C/C(=O)OCC(=O)Nc1ccc(OC)c(Cl)c1,"inconclusive [inhibitor, full curve, poor fit]"
20,CC1(C)CC(=O)C(C=Nc2ccc(N)cc2)=C(O)C1,inactive
21,COCc1cc(C)nc2sc(C(=O)Nc3ccccc3O)c(N)c12,inactive
22,CCc1c(C(=O)Nc2ccc(OC)cc2)[nH]c(C)c1C(C)=O,"inconclusive [inhibitor, partial curve, poor fit]"

row,SMILES,Potency
1,CC(=O)Oc1ccc(-c2cccc(C(=O)NCCCO)c2)cc1,"inconclusive [inhibitor, partial curve]"
2,O=C(NN=C1CCCCCCCCCCC1)c1cccnc1,"inconclusive [inhibitor, partial curve]"
3,CCOC(=O)N1CCN(C(=O)C2CCCN(S(C)(=O)=O)C2)CC1 (stereo unspecified),"inconclusive [inhibitor, full curve, poor fit]"
4,CCOC(=O)N1CCN(C(=O)CSc2nnc(Cc3ccccc3)o2)CC1,"inconclusive [inhibitor, full curve]"
5,CCOC(=O)c1ccc(OCc2nc(-c3cccs3)no2)cc1,"inconclusive [inhibitor, full curve]"
6,COc1ccccc1-c1c(C)nn2c(-c3ccccc3)cc(-c3ccccc3)nc12,inactive
7,COc1cc(CCNC(=O)CCCn2c(=O)c3cccn3c3cccnc32)cc(OC)c1OC,inactive
8,O=C(CCNC(=O)C1CCN(S(=O)(=O)c2ccc(F)cc2)CC1)NCc1ccc(F)cc1,"inconclusive [inhibitor, partial curve, poor fit]"
9,Fc1cccc(/C=N/Nc2ccc3ccccc3n2)c1,"inconclusive [inhibitor, full curve, poor fit]"
10,N#C/C(=C\c1ccco1)C(=O)NCc1ccccc1,"inconclusive [inhibitor, full curve, poor fit]"
11,Cc1ccc(CNC(=O)C(Cc2ccccc2)NS(=O)(=O)c2cccs2)cc1 (stereo unspecified),"inconclusive [inhibitor, full curve, poor fit]"
12,O=[N+]([O-])C(=C1SCCS1)C(=C(Cl)Cl)N1CCCCC1,"inconclusive [inhibitor, single point]"
13,COCCCNC(=O)Cn1c(=O)n(-c2cccc(C)c2)c(=O)c2c1c1cc(C)ccc1n2C,inactive
14,O=C(CSc1cc(Cl)ccc1Cl)Nc1ccc(N2CCOCC2)cc1,inactive
15,Cc1cc(N2CCN(C)CC2)ccc1NC(=O)c1ccc(-c2ccc(Cl)cc2)o1,inactive
16,CCc1nnc(NC(=O)CSc2nnc(-c3ccco3)n2C)s1,"inconclusive [inhibitor, full curve, poor fit]"
17,CCCNC(=O)COc1coc(CN2CCN(c3ccc(F)cc3)CC2)cc1=O,"inconclusive [inhibitor, full curve, poor fit]"
18,CC(C)(O)c1[nH]c2ccc(C(F)(F)F)cc2c1C(C)(C)O,"inconclusive [inhibitor, full curve, poor fit]"
19,O=C(NC(=S)Nc1ccc(N2CCOCC2)cc1)c1ccco1,"inconclusive [inhibitor, single point]"
20,NC(=O)CC(NC(=O)Cc1ccc(Cl)cc1)c1ccc(NCCCN2CCCC2=O)c([N+](=O)[O-])c1 (stereo unspecified),"inconclusive [inhibitor, partial curve, poor fit]"
21,COCCOc1ccc(C(F)(F)F)cc1NC(=O)COC(=O)C12CC3CC(CC(O)(C3)C1)C2,inactive
22,NS(=O)(=O)c1ccc(-c2ccc(/C=C3\C(=O)Nc4ccccc43)o2)cc1,"inconclusive [inhibitor, full curve, poor fit]"

row,SMILES,Potency
1,O=S(=O)(Nc1nc2ccccc2[nH]1)c1ccc(Cl)cc1,"inconclusive [inhibitor, partial curve]"
2,COc1ccccc1N1CCN(C(c2cc3cc(C)ccc3[nH]c2=O)c2nnnn2C2CCCC2)CC1 (stereo unspecified),"inconclusive [inhibitor, full curve]"
3,CC(=O)c1cccc(NC(=O)NCCS(C)=O)c1 (stereo unspecified),"inconclusive [inhibitor, partial curve, poor fit]"
4,O=C(CCl)N(c1ccc(Cl)cc1)c1c[nH]c2ccccc12,inactive
5,CC(=O)Nc1cnc(NC(=O)c2cccc(F)c2)cc1C,"inconclusive [inhibitor, single point]"
6,CCOC(=O)c1c(C)[nH]c(C)c1C(=O)COC(=O)COc1ccc(Cl)c(C)c1,"inconclusive [inhibitor, partial curve, poor fit]"
7,CCOc1ccc(N(CC(=O)N2CCc3ccccc32)S(=O)(=O)c2c(C)noc2C)cc1,"inconclusive [inhibitor, full curve, poor fit]"
8,CCn1c2ccccc2c2nnc(N3CCN(c4cccc(Cl)c4)CC3)nc21,inactive
9,NS(=O)(=O)c1ccc(NC(=O)/C=C/c2ccco2)cc1,inactive
10,CN(Cc1ccc(F)cc1)C(=O)c1cccc(S(=O)(=O)N2CCN(c3ccccc3)CC2)c1,inactive
11,O=C(c1cc(Br)ccc1O)N1CCN(S(=O)(=O)Cc2ccccc2)CC1,"inconclusive [inhibitor, full curve, poor fit]"
12,Cc1ccc(/C=C2\SC(=S)N(CCC(=O)NNS(=O)(=O)c3ccc(C)cc3)C2=O)cc1,inactive
13,CCc1ccccc1NC(=O)c1cc(S(=O)(=O)N2CCc3ccccc32)ccc1F,inactive
14,O=C(CN1CCN(C(=O)c2ccccc2)CC1)Nc1cccc(S(=O)(=O)N2CCCC2)c1,"inconclusive [inhibitor, full curve, poor fit]"
15,COc1ccccc1CNc1nc(-c2ccco2)nn1C(=O)c1cc(OC)c(OC)c(OC)c1,inactive
16,CC(=O)c1sc(NC(=O)CS(=O)(=O)c2ccc(F)cc2)nc1C,inactive
17,O=c1nc2n(c3sc4c(c13)CCCC4)C(CBr)CS2 (stereo unspecified),"inconclusive [inhibitor, full curve, poor fit]"
18,CCCCNC(=O)c1cnc2n(c1=O)CCS2,"inconclusive [inhibitor, single point]"
19,CNc1ccc(Br)cc(C(=O)/C=C/c2ccc(OC)cc2OC)c1=O,"inconclusive [inhibitor, full curve]"
20,CC(=O)NC1CCCN(O)C(=O)/C=C(\C)CCOC(=O)C(NC(C)=O)CCCN(O)C(=O)/C=C(\C)CCOC(=O)C(NC(C)=O)CCCN(O)C(=O)/C=C(\C)CCOC1=O (stereo unspecified),inactive
21,Cn1c(=O)c2c(nc(CN3CCN(C(=O)c4ccco4)CC3)n2CC(=O)C(C)(C)C)n(C)c1=O,"inconclusive [inhibitor, full curve]"
22,Cc1ccc(-c2nnn(CC(=O)N(CCO)C(C(=O)NC3CCCCC3)c3ccncc3)n2)o1 (stereo unspecified),"inconclusive [inhibitor, full curve, poor fit]"
